# Reference: PubChem BioAssay AID485344 (National Center for Advancing Translational Sciences (NCATS), 2010)
# About 6,900 (2%) of roughly 340,000 compounds were called active. Rule as the data show it: active = inhibition above about 30%; inactive = below that, where a call was filed. The list shows a part of the results, in another mix than the full data. Entries without a call were filed so in the source.
# Biological target: D(2) dopamine receptor (Homo sapiens) (UniProt P14416)
# Experiment: HTS Assay for Allosteric Antagonists of the Human D2 Dopamine Receptor: Primary Screen for Antagonists; also: 0% is about no effect
# Details: HEK293 TREx D2 cells, calcium flux, dopamine EC80; at 10 µM; stronger effect = higher value
# Procedure, shortened: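 Inhibition of EC80 dopamine-driven calcium flux, recorded kinetically, defines activity here; cells are a tetracycline-induced HEK293 T-REx line expressing force-coupled D2.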
# UniProt P14416, sequence (P14416 whole entry, looked up): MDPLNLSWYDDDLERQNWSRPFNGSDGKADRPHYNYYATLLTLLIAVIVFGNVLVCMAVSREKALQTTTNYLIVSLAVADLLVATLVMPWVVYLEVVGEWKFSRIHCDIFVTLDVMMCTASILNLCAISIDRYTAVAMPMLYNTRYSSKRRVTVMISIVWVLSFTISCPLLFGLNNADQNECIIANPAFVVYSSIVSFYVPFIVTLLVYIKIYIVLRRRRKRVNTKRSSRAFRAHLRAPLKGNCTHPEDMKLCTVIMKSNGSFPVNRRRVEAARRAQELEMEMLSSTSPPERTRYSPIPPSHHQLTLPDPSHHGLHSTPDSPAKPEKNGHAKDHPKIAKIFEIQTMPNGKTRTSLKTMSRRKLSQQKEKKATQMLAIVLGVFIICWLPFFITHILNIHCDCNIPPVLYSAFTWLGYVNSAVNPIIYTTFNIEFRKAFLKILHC
row,Structure (SMILES),inhibition
1,O=C(Nc1ccsc1C(=O)NC1CCCCC1)c1ccccc1,active: 30.7%
2,COc1cc(OC)cc(C(=O)Nc2ccc3nc4c(c(Nc5ccc(OC)c(OC)c5)c3c2)CCCC4)c1,-21.9%
3,O=C(Nc1ccc(-c2nc3ccccc3o2)c(O)c1)c1cc(Cl)ccc1Cl,6.11%
4,CCCCc1ccc(Nc2cc(C)nc(-n3nc(C)cc3C)n2)cc1,-6.96%
5,Cc1occc1C(=O)N/N=C/c1ccccc1[N+](=O)[O-],active: 34.6%
6,CCN(C(=O)CCS(=O)(=O)c1ccc2c(c1)CCN2C(C)=O)c1cccc(C(F)(F)F)c1,1.47%
7,CCCCNC(=O)CC1Nc2cc(C)c(C)cc2NC1=O (configuration not stated),13.2%
8,O=C(Nc1ccc2nc3n(c(=O)c2c1)CCCCC3)c1ccccc1[N+](=O)[O-],active: 30.2%
9,CN(C)S(=O)(=O)c1ccc(C(=O)NCCSc2c(-c3ccc(Br)cc3)[nH]c3ccccc23)cc1,8.97%
10,COc1ccccc1NC(=O)c1nn(C)c2c1CS(=O)(=O)c1ccccc1-2,-7.46%
11,Cc1c(Cl)cccc1N1CCn2c1nc1c2c(=O)n(CC(=O)O)c(=O)n1C,-7.86%
12,COc1ccc(Cl)cc1NC(=O)Nc1c[nH]c(=O)[nH]c1=O,1.3%
13,O=C(NCCc1ccc(Cl)cc1)c1nnc(Cc2ccc(F)cc2)o1,2.58%
14,O=C(CCSCc1ccc(Cl)cc1)NCCc1ccccc1,7.31%
15,Cc1ccc(NC(=O)C2CCCN(c3ncnc4onc(C)c34)C2)c(Cl)c1 (configuration not stated),9.05%
16,Cc1cccc(C)c1Nc1c(-c2ccc(N3CCOCC3)cc2)nc2ncccn12,13.9%
17,O=C(Cn1nc(Cc2ccncc2)c2ccccc2c1=O)Nc1cccc(C(F)(F)F)c1,3.09%
18,COc1ccccc1CNC(=O)Cn1c(-c2ccc(F)cc2)cc(C(C)=O)c1C,14.8%
19,CCN(CC)CCN(C(=O)c1ccco1)c1nc2c(C)c(C)ccc2s1,11.1%
20,CNC(=O)c1c(NC(=O)c2cc(=O)c3cc(C)c(C)cc3o2)sc2c1CCCC2,9.93%
21,Cc1ccc(-c2cc(C(F)(F)F)n3nc(-c4cccc(Br)c4)cc3n2)cc1,-15.8%
22,CN(C(=O)c1c[nH]c2ccc(S(=O)(=O)Nc3cccc(C(F)(F)F)c3)cc2c1=O)C1CCCCC1,-0.644%
23,CCn1c(=O)cc(OCC(=O)N2CCN(c3ccc(C(C)=O)cc3)CC2)c2ccccc21,-3.34%
24,COc1ccc(N2CCN(C(=O)CN3CCSc4ccccc43)CC2)cc1,1.72%
25,Cc1ccc2oc(=O)c(S(=O)(=O)c3ccc(F)cc3)cc2c1,-5.97%

row,Structure (SMILES),inhibition
1,CCc1nc2ccc(C(=O)NCc3ccc(N(C)C)cc3)cc2nc1CC,13.1%
2,CC1CCCC(NC(=O)COC(=O)c2cccc(NS(=O)(=O)/C=C/c3ccccc3)c2)C1C (configuration not stated),active: 49.8%
3,CCN(C(=O)CSc1nc2ccccc2n1Cc1ccc(C(=O)OC)cc1)c1ccccc1,2.67%
4,COc1ccc(CCN2C(=O)NC(NC(=O)c3ccccc3OC)(C(F)(F)F)C2=O)cc1OC (configuration not stated),-7.07%
5,CCC(Sc1ncc(S(=O)(=O)c2ccc(C)cc2)c(=O)[nH]1)C(=O)Nc1cc(C)ccc1C (configuration not stated),0.43%
6,CCc1ccc(NC(=O)CN2CCN(C3CCCCC3)C(=O)C2=O)cc1,2.43%
7,Cc1ccc(/C=C(\C#N)C(=O)Nc2ccc(Br)cc2)o1,0.0126%
8,O=C(Cn1cc(SCc2ccc(Br)cc2)c2ccccc21)N1CCCCC1,2.77%
9,O=C(Nc1c(C(=O)c2ccc(Cl)cc2)oc2ccccc12)c1cc(=O)c2ccccc2o1,6.53%
10,COc1ccc(NC(=O)c2cnc(Nc3ccc(C)c(Cl)c3)c3ccccc23)c(OC)c1,-12.7%
11,CCOC(=O)Nc1ccc(NC(=O)OCC)cc1,active: 38.8%
12,O=C(CN1CCN(c2ccccc2F)CC1)c1c[nH]c2ccc(F)cc12,active: 35.1%
13,COc1ccc2c(c1)CC(C(=O)NCCN1CCN(c3ccccc3F)CC1)CO2 (configuration not stated),-3.89%
14,CCCC(=O)N1CCc2cc(OC)c(OC)cc2C1COc1ccc2c(C)cc(=O)oc2c1 (configuration not stated),2.92%
15,COc1ccc(NC(=O)Cn2c(=O)cc(C)c3c(C)nn(C)c32)cc1,2.66%
16,COc1ccc(CNc2nc(-c3ccc(OC)cc3)cc(C(F)(F)F)n2)cc1,-18.5%
17,CCCSc1ncc(Cl)c(C(=O)Nc2ccc(S(=O)(=O)N3CCC(C)CC3)cc2)n1,-11.7%
18,Cc1ccc(Cl)cc1N1CCN(C(=O)c2cnn(C(C)(C)C)c2C2CCN(C(=O)OC(C)(C)C)CC2)CC1,-3.16%
19,CCOc1ccc(NC(=O)Cn2cc(C(=O)c3ccc(CC)cc3)c(=O)c3cc4c(cc32)OCO4)cc1,-2.72%
20,C=C(C)Cn1c(=O)c2c(nc3n2CCN3c2cc(C)cc(C)c2)n(C)c1=O,16.2%
21,CN(C)CCNC(=O)CN1N=C(c2ccccc2)CCC1=O,8.81%
22,Cc1nn(-c2ccc(N3CCOCC3)nn2)c(C)c1CCC(=O)NCc1ccccc1,17.5%
23,c1nnc(-c2ccc3c(c2)OCO3)o1,active: 30.6%
24,Cc1cc(C)c(NC(=O)CSc2n[nH]c(-c3ccccc3Cl)n2)c(C)c1,-9.61%
25,O=C(N/N=C/C=C\c1ccccc1[N+](=O)[O-])c1ccccn1,active: 81.4%

row,Structure (SMILES),inhibition
1,Cc1ccn2c(Nc3ccccc3C)c(-c3ccc(N4CCOCC4)cc3)nc2c1,-3.21%
2,Cc1ccccc1CCNC(=O)c1ccc(NC(=O)N2CC(C)Sc3ccccc32)cc1 (configuration not stated),-2.68%
3,COc1ccccc1NC(=O)c1sc2nc3c(c(C(F)(F)F)c2c1N)CN(C(C)=O)CC3,6.55%
4,Cc1ccc(NC(=O)CS(=O)CC(=O)N(CC(=O)NC2CCCC2)c2cccc(C)c2C)cc1 (configuration not stated),active: 55.4%
5,CCOC(=O)C1CCN(Cc2cc(C(C)C)c(O)c(C(C)C)c2)CC1,active: 44.9%
6,Cc1ccc(C)c(Nc2nnc(-c3ccc(C)c(S(=O)(=O)N4CCN(C)CC4)c3)c3ccccc23)c1,-4.99%
7,CCc1ccc(NC(=O)C(=O)NCCc2csc(-c3cccc(F)c3)n2)cc1,9.99%
8,CCn1nc(C)c2c(-c3ccccc3)cc(=O)n(C(C)C(=O)Nc3cccc(F)c3)c21 (configuration not stated),9.41%
9,CCOc1ccc(NC(=O)CSc2oc(-c3cccs3)nc2S(=O)(=O)c2ccc(C)cc2)cc1,24.2%
10,CCOC(=O)CSc1nnc(COc2ccc3ccccc3c2)o1,active: 34%
11,COc1ccc(N2C(=O)CSC23CCCCC3)cc1,active: 33.1%
12,Cc1cc2cc(CCNS(=O)(=O)c3ccc(Br)cc3)c(=O)[nH]c2cc1C,1.98%
13,Cc1ccc(NC(=O)c2cc(S(=O)(=O)N3CCC(C)CC3)cn2C)cc1Cl,-12.6%
14,COCCN1Cc2cccc(C(=O)Nc3ccc(C(=O)OC)cc3)c2C1=O,0.264%
15,O=C(CCS(=O)(=O)c1nc(-c2cccs2)cc(C(F)(F)F)n1)Nc1ccc(Br)cc1,3.7%
16,O=C(CSc1nccc(=O)[nH]1)Nc1ccc(S(=O)(=O)N2CCOCC2)cc1,active: 31.5%
17,COc1ccccc1C(=O)Nc1ccc2nc(SCC(=O)N3CCCC3)sc2c1,3.92%
18,Cc1ccc(NC(=O)/C(C#N)=C\c2ccc(-c3ccc(Cl)cc3)o2)c(C)c1,-7.32%
19,COCCNC(=O)CCCn1c(SCC(=O)c2ccc(F)cc2)nc2c(sc3ccccc32)c1=O,1.16%
20,COc1ccc(C(=O)OCC(=O)Nc2cccc(C(C)=O)c2)cc1OC,active: 113%
21,COc1cc2oc(=O)c(CC(=O)NCCc3ccccc3)c(C)c2cc1Cl,-2.88%
22,COc1ccc(NC(=O)CCc2nc3c(C)nn(-c4ccc(C)cc4)c3n(C)c2=O)c(OC)c1,17.3%
23,CSc1nn(Cc2ccccc2C)c(NC(C)=O)c1S(=O)(=O)c1ccc(C)cc1,2.41%
24,CCOC(=O)CCn1c(=O)c2cccn2c2cccnc21,5.29%
25,COc1ccc(OC)c(CNC(=O)c2cc(S(=O)(=O)N3CCC(C)CC3)cn2C)c1,1.21%

row,Structure (SMILES),inhibition
1,Cc1ccccc1NC(=O)c1cc2sccc2n1Cc1ccc(F)cc1,3.54%
2,CN(c1ccccc1)S(=O)(=O)c1nnc(NC(=O)c2ccco2)s1,-3.68%
3,CCc1cccc(C)c1NC(=O)C1CCN(c2nnc(C)c3c(C)n(-c4ccccc4)nc23)CC1,-8.44%
4,Cc1cccc(NC(=O)C2CCN(S(=O)(=O)c3ccc4[nH]c5c(c4c3)CCCCC5)CC2)c1,8.23%
5,O=C(N/N=C/c1cccc(Br)c1)c1ccc(Br)cc1,active: 49.9%
6,COc1ccc(CNC(=O)C2CCN(S(=O)(=O)c3ccc4nc5c(c(C(=O)O)c4c3)CCCC5)CC2)cc1,-15.6%
7,COc1ccc2c(c1)CCc1c(C(=O)Nc3cnn(Cc4ccc(Cl)cc4Cl)c3)noc1-2,18.8%
8,COc1cccc(NC(=O)CCSc2nc(-c3ccco3)cc(C(F)(F)F)n2)c1,3.79%
9,O=C(NC1CCN(Cc2ccccc2)CC1)c1cccc(Br)c1,active: 98.3%
10,CCc1nn2c(=O)cc(COC(=O)c3cccc(NC(=O)COc4ccccc4)c3)nc2s1,-11.6%
11,COc1ccc(-c2noc(N3CCN(c4ccc(Cl)cc4)CC3)n2)cc1OC,-25.9%
12,O=C(CN1CCN(c2ccccn2)CC1)Nc1cccc(S(=O)(=O)N2CCCC2)c1,active: 60.1%
13,CC(C)Cc1nn2c(=O)cc(COC(=O)c3ccccc3NC(=O)c3cccs3)nc2s1,4.13%
14,Clc1ccc(Nc2nc(-c3ccccc3)c3ccccc3n2)c(Cl)c1,2.63%
15,O=C(NCc1ccccc1)c1ccc2nnsc2c1,active: 33.6%
16,O=S(=O)(c1cc(Br)c(Br)s1)N1CCN(c2ccccc2)CC1,4.63%
17,COc1ccccc1C(=O)Nc1cccc(OCc2cc(=O)n3c(C)csc3n2)c1,4.88%
18,CC(C)c1ccc(NC(=O)C2CCN(S(=O)(=O)c3ccc(Br)s3)CC2)cc1,-0.598%
19,CCOc1ccc(NC(=O)CCc2nc3cccnc3n2Cc2ccc(OC)cc2)cc1,9.94%
20,Cc1ccccc1CN1C(=O)c2ccccc2Sc2ccc(C(=O)O)cc21,-7.58%
21,Cc1ccc(NC(=O)C2CCCN(c3cnccn3)C2)cc1Cl (configuration not stated),-18.8%
22,Nc1nnc(SCC(=O)Nc2cccc(F)c2)s1,-9.03%
